The text below walks through data of PubChem BioAssay AID1508624 (National Center for Advancing Translational Sciences (NCATS), 2021).

SMILES strings stand for the structures. Screen size: about 48,000 compounds; about 120 (0.25%) were called active. Another 4% or so got no clear call; they are omitted. The call rests on the fitted dose curve; in most records, active means well fitted activation curve with a large enough effect; inconclusive means small, poorly fitted or top-dose-only effect, or another doubt; inactive means no such curve, though single readings can be large or run the other way. Some of the results follow.

The experiment can be described thus: Primary qHTS for Identification of Small Molecule Activators of Huntingtin-Antisense Promoter Activity. Further: nearly all actives have a fitted effect of over 55% in size. The following applies: HEK293 HTT-AS promoter firefly luciferase reporter (activity 0% = vehicle and -100% = no light), 24 h; series mostly up to 57.5 µM; activity change, positive = activation: at the top concentration. The method, boiled down: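 HEK293 Fluc reporter, 2,500 cells/well, 24 h pre-culture; cpds up to 57.5 uM final, 24 h 37 degrees C; Dual-Glo, 10 min RT; normalized vehicle = 0%, zero RLU = -100%.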
For orientation: In qHTS, concentration-response curves come from the screen itself.
Regarding `O=C(CN1C(=O)COc2ccc(S(=O)(=O)N3CCOCC3)cc21)N1CCN(c2ccc(F)cc2)CC1`, the “activity change, positive = activation” value is inactive: -4.66%.

`CC(Sc1nc(=O)cc(N)n1CCc1ccccc1)C(=O)Nc1ccccc1C#N` (centres undefined): the “activity change, positive = activation” value was inactive: 13.1%.

`COc1ccc(OC)c(NC(=O)CN2C(=O)CCc3cc(S(=O)(=O)N4CCCCC4)ccc32)c1`: the “activity change, positive = activation” value was inactive: -11.3%.

Consider `O=C(NC1CCCCC1)c1ccc2c(c1)N(Cc1ccc(Cl)cc1)C(=O)c1ccccc1S2(=O)=O`, for which the “activity change, positive = activation” value is inactive: -15.9%.

Take `CCc1ccc2oc(C(=O)Nc3sc4c(c3C(=O)NC)CCCC4)cc(=O)c2c1`: the “activity change, positive = activation” value is inactive: -2.96%.

On to `O=C(Nc1ccc(Cl)cc1F)c1cc(S(=O)(=O)NCc2ccc3c(c2)OCO3)ccc1F`, for which the “activity change, positive = activation” value is inactive: -11.8%.

Regarding `CCOc1ccc(C(=O)Nc2cccc(OCc3cc(=O)n4cc(C)sc4n3)c2)cc1`, the “activity change, positive = activation” value is inactive: 13.3%.

`CCCCOC(=O)c1cccc(NC(=O)c2cc3ccccc3o2)c1`: the “activity change, positive = activation” value was inactive: -52.4%.

Take `CN(C)CCn1c2c(c(SCC(=O)Nc3ccc(F)cc3F)nc1=O)CCC2`: the “activity change, positive = activation” value was inactive: -4.71%.

As to `CCCCn1cc(S(=O)(=O)c2cccc(C)c2)c(=O)c2cc(F)c(N3CCOCC3)cc21`, the “activity change, positive = activation” value is inactive: -12.6%.

Turning to `Cc1ccc(C)c(Cn2nc(-c3cc(C)ccc3C)ccc2=O)c1`, the “activity change, positive = activation” value was inactive: -31.1%.

Regarding `CCOC(=O)c1c(S(=O)(=O)N2CCCC(C(=O)N3CCN(c4ccccc4)CC3)C2)c(C)n(C)c1C` (centres undefined), the “activity change, positive = activation” value was inactive: 0%.

Take `Cc1ccccc1OC(=O)CSc1nnc(-c2cccs2)o1`: the “activity change, positive = activation” value is inactive: -0.554%.

On to `COc1cccc(N2CC(NC(=O)c3ccc(S(=O)(=O)N4CCCCC4)cc3)CC2=O)c1` (centres undefined), for which the “activity change, positive = activation” value was inactive: -15.1%.

With `CCOc1ccc(S(=O)(=O)NCC(c2ccco2)S(=O)(=O)c2ccc(F)cc2)cc1` (centres undefined), the “activity change, positive = activation” value is inactive: -20.6%.

In the case of `COc1ccc(-c2nc3ccccc3o2)cc1NC(=O)COc1ccc(C(C)(C)C)cc1`, the “activity change, positive = activation” value was inactive: 21%.

For the compound `CCOC(=O)c1cc2c(=O)n3ccccc3nc2n(CC2CCCO2)c1=NC(=O)c1ccc(C)cc1` (centres undefined), the “activity change, positive = activation” value is inactive: 9.85%.

Turning to `O=[N+]([O-])c1ccc(C(c2sc3nc(-c4ccco4)nn3c2O)N2CCN(c3cccc(Cl)c3)CC2)cc1` (centres undefined), the “activity change, positive = activation” value was inactive: -10.5%.

For the compound `CCC(=O)Nc1ccc2nc(SCCOc3ccc(C)cc3)sc2c1`, the “activity change, positive = activation” value is inactive: -15.5%.

For `CCS(=O)(=O)c1ncc(N(Cc2ccc(F)cc2)Cc2ccco2)c(C(=O)Nc2cc(C)ccc2C)n1`, the “activity change, positive = activation” value was inactive: -22.7%.

As to `CCOC(=O)C1CCN(C(=O)CN2c3ccc(CC)cc3-c3ccccc3S2(=O)=O)CC1`, the “activity change, positive = activation” value was inactive: 1.9%.

As to `CCCn1c(NCc2ccc(N(CC)CC)cc2)nc2ccccc21`, the “activity change, positive = activation” value was inactive: -22.5%.

As for `CCCN(CCC)C(=O)Cn1c(=O)n(-c2ccc(OC)cc2)c(=O)c2ccc(C(=O)NCc3ccc(C)cc3)cc21`, the “activity change, positive = activation” value was inactive: -23.5%.

In the case of `CN1CCN(c2nc3c(S(=O)(=O)c4ccccc4)nnn3c3ccsc23)CC1`, the “activity change, positive = activation” value was inactive: -4.65%.

For the compound `Cc1ccc(-n2c(SCC(=O)Nc3cccc(C)c3)nc3c(oc4ccccc43)c2=O)cc1`, the “activity change, positive = activation” value is inactive: -13%.

For `CCOC(=O)C1CCCN(C(=O)c2ccc(-n3ccc4ccccc43)s2)C1` (centres undefined), the “activity change, positive = activation” value was inactive: -25%.

Consider `Cc1cc(OI)c(C(C)C)cc1-c1cc(C(C)C)c(OI)cc1C`, for which the “activity change, positive = activation” value is inactive: -3.64%.

For the compound `CC(=O)N1c2c(cc(Br)cc2S(=O)(=O)N2CCN(c3cccc(Cl)c3)CC2)CC1C` (centres undefined), the “activity change, positive = activation” value is inactive: -22.9%.

For the compound `COc1cccc(N2CCN(C(=O)c3cnn(-c4ccc(C)cc4C)c3C3CCN(C(=O)OC(C)(C)C)CC3)CC2)c1`, the “activity change, positive = activation” value was inactive: -16.7%.

For `CC(=O)c1cccc(NS(=O)(=O)c2ccc3c(c2)NC(=O)CC(=O)N3)c1`, the “activity change, positive = activation” value is inactive: -5.78%.

Take `CCN(Cc1ccccc1)C(=O)c1cc2c(s1)-c1c(C)cccc1OC2`: the “activity change, positive = activation” value is inactive: -6.17%.

In the case of `Cc1ccc(Cl)cc1NC(=O)Cn1c(=O)n(Cc2ccc(C(=O)NCc3ccc4c(c3)OCO4)cc2)c(=O)c2ccccc21`, the “activity change, positive = activation” value was inactive: -10%.

For the compound `CCN1CCN(c2c(S(=O)(=O)c3ccc(C)c(C)c3)cnc3ccc(F)cc23)CC1`, the “activity change, positive = activation” value was inactive: -1.96%.

Consider `Cc1nn(CC(=O)Nc2ccccc2F)c(=O)c2c(C)n(-c3ccc(Cl)cc3)nc12`, for which the “activity change, positive = activation” value is inactive: -36.7%.

Regarding `O=c1c2cnn(-c3ccc(Cl)cc3)c2ncn1Cc1cccc(C(F)(F)F)c1`, the “activity change, positive = activation” value was inactive: -13.4%.

Take `COc1ccc(NC(=O)CSc2cc(-c3ccccc3)nc(C)n2)cc1`: the “activity change, positive = activation” value was inactive: -24.5%.

As for `CCOc1ccc(-c2csc(/C(C#N)=C/c3ccc(Br)cc3)n2)cc1`, the “activity change, positive = activation” value is inactive: -12.1%.

For the compound `Cc1oc2c(c(C)cc3oc(=O)c(CC(=O)NCc4ccccc4)c(C)c32)c1C`, the “activity change, positive = activation” value was inactive: -11.3%.

For `CCOC(=O)c1cc(-c2ccccc2)n(-c2cccc(C(=O)Nc3cccc(C(C)=O)c3)c2)c1C`, the “activity change, positive = activation” value was inactive: -25.9%.

Take `COc1cccc(N2CCN(C(=O)CN3C(=O)COc4ccc(S(=O)(=O)N5CCC(C)CC5)cc43)CC2)c1`: the “activity change, positive = activation” value was inactive: -11.7%.

For `COc1ccc(C)cc1-n1nnc(C(=O)Nc2cccc(SC)c2)c1C`, the “activity change, positive = activation” value is inactive: 19.9%.

In the case of `Cc1c(Cl)cccc1NC(=O)Cn1cc2c(n1)CCCC2`, the “activity change, positive = activation” value is inactive: -17.9%.

Regarding `COc1ccc(C(=O)NCC(c2cccnc2)N2CCc3ccccc32)cc1OC` (centres undefined), the “activity change, positive = activation” value is inactive: -19.3%.

Consider `Cc1cccc(CNC(=O)c2ccc(NC(=O)N3CCSc4ccccc43)cc2)c1`, for which the “activity change, positive = activation” value was inactive: -14.6%.

For `Cc1cccc(Oc2ccc3c(c2)Oc2ccccc2NC3=O)c1`, the “activity change, positive = activation” value was inactive: -25.7%.

As for `Cc1ccc(NC(=O)Cn2cc(S(=O)(=O)N3CCC(C)CC3)c3ccccc3c2=O)c(Br)c1`, the “activity change, positive = activation” value was inactive: -19.1%.

Regarding `CCCCN(CCCNC(=O)c1c(C)oc2nc[nH]c(=O)c12)Cc1ccccc1`, the “activity change, positive = activation” value was inactive: -26.8%.

For the compound `COc1ccc(CNC(=O)c2cnn(-c3ccc(F)cc3)c2-n2cccc2)cc1`, the “activity change, positive = activation” value is inactive: -9.69%.

Consider `CNC(=O)c1c(NC(=O)c2ccc(S(=O)(=O)N3CCCCC3C)cc2)sc2c1CCC2` (centres undefined), for which the “activity change, positive = activation” value is inactive: -14.5%.

In the case of `Cc1ccc(Nc2c(-c3cccnc3)nc3ccc(Br)cn23)cc1`, the “activity change, positive = activation” value is inactive: 1.71%.

With `COc1ccc(-c2nnc(SCC(=O)N(C)Cc3ccccc3)o2)cc1OC`, the “activity change, positive = activation” value is inactive: -11%.

With `COc1ccc(CN2C(=O)c3oc4ccccc4c(=O)c3C2c2ccc(O)c(OC)c2)cc1` (centres undefined), the “activity change, positive = activation” value was inactive: -5.42%.

Consider `CCOc1ccc(CNC(=O)c2ccc3c(c2)nc2n3CCC(C)C2)cc1OC` (centres undefined), for which the “activity change, positive = activation” value is inactive: -20.8%.

As to `CCCCSCCCNC(=O)C1CCC(CNS(=O)(=O)c2c(C)cc(C)cc2C)CC1` (centres undefined), the “activity change, positive = activation” value was inactive: -3.18%.

For the compound `COc1cccc(C(=O)NC2CC(=O)N(c3ccc4c(c3)OCCO4)C2)c1OC` (centres undefined), the “activity change, positive = activation” value is inactive: -6.9%.

Consider `Cc1csc2nc(CCNS(=O)(=O)c3ccc(F)cc3)cn12`, for which the “activity change, positive = activation” value was inactive: -8.34%.

As to `O=C(CSc1nc2c([nH]c3ccccc32)c(=O)n1-c1ccccc1)N1CCCCCC1`, the “activity change, positive = activation” value is inactive: -10.9%.

As to `CC1CCc2c(sc(NC(=O)COc3ccccc3C(C)(C)C)c2C#N)C1` (centres undefined), the “activity change, positive = activation” value was inactive: -2.71%.

Turning to `Cc1ccc(NC(=O)Cn2c(SCc3ccc(F)cc3)nc3cccnc32)cc1F`, the “activity change, positive = activation” value is inactive: 9.47%.
